{"source": "paper PMC13083723", "about": "(Patterns, 2026)", "note": "Hit rate of the full screen: of about 5,400 compounds, about 190 (3.5%) showed an effect of 50% or more. The list shows a part of the results. Starred links: 1 amine or outer side, 2 acyl side, 3 side chain; linkers in the order of their positions; H or OH if unused. Positions of bridges follow the written chain, without caps; N, C: chain ends. Residues, ends and D or L forms follow the SMILES beside them. X2 = O=C(CCC[*:2])[*:1]", "data": [{"tested_on": "Vero-E6", "test": "primary screen, phospholipidosis by LipidTOX staining; higher = more effect of the substance", "details": "10 µM", "method_in_brief": "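Drug-induced phospholipidosis detected with HCS LipidTOX Red reagent in Vero-E6 cells. Compounds tested at 10 μM, with amiodarone (10 μM) as positive control and DMSO (0.1 v/v %) as vehicle.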", "units": {"result_ITMP": "%"}, "values": [{"compound": "COc1ccc(-c2ccc3c(N4CCOC[C@@H]4C)nc(N4CCOC[C@@H]4C)nc3n2)cc1CO", "result_ITMP": 4.71}, {"compound": "C[C@H](Nc1cc2c(-c3ccc4c(c3)OCO4)noc2cn1)c1ccccc1", "result_ITMP": 5.45}, {"compound": "CCC1(c2cnc[nH]2)Cc2ccccc2C1", "result_ITMP": -0.97}, {"compound": "Cc1cc2ncc(C(=O)NCC(C)(C)NCC(=O)N3CCC[C@H]3C#N)cn2n1", "result_ITMP": -0.2}, {"compound": "O=C(O)c1ccc(SSc2ccc(C(=O)O)cn2)nc1", "result_ITMP": 3.39}, {"compound": "O/N=C/c1ccc(-c2ccc(O)c(F)c2)c(Cl)c1O", "result_ITMP": -1.03}, {"compound": "CC[N+](C)(CC)CCOC(=O)C(O)(c1ccccc1)C1CCCCC1", "note": "(stereo not shown)", "result_ITMP": 1.26}, {"compound": "CCCOC(=O)c1ccccc1", "result_ITMP": -4.22}, {"compound": "CCOC(=O)c1cc(C#N)c(N2CCC(C(=O)NS(=O)(=O)Cc3ccccc3)CC2)nc1C", "result_ITMP": 0.54}, {"compound": "CN1C2C=C(c3sccc3Br)CC1CC2", "note": "(stereo not shown)", "result_ITMP": 6.82}, {"compound": "COc1cc(N2CCOCC2)ccc1Nc1ncc(Cl)c(Nc2ccccc2NS(C)(=O)=O)n1", "result_ITMP": 51.4}, {"compound": "COc1ccc([C@@H]2CC(=O)c3c(O)cc(O)cc3O2)cc1O", "result_ITMP": -4.36}, {"compound": "N=C1NC(=O)/C(=C/c2ccc(O)cc2)S1", "result_ITMP": -1.38}, {"compound": "CC[C@H](C)[C@@H]1NC(=O)[C@H](Cc2ccc(OC)cc2)NC(=O)CCCSC[C@@H](C(=O)N2CCC[C@H]2C(=O)N[C@@H](CC(C)C)C(=O)NCC(N)=O)NC(=O)[C@H](CC(N)=O)NC(=O)[C@H](CCC(N)=O)NC1=O", "note": "(Y(Me)IQNCPLG-NH2; linker N-5 via X2)", "result_ITMP": -0.16}, {"compound": "NC(=O)c1ccc(N(C(N)=O)c2c(F)cccc2F)nc1-c1ccc(F)cc1F", "result_ITMP": -4.92}, {"compound": "CN1C2CC(O)[C@H]1C[C@@H](OC(=O)[C@H](CO)c1ccccc1)C2", "note": "(mixture of isomers)", "result_ITMP": -3.11}, {"compound": "C[N+]1(C)CCC(OC(=O)C(c2ccccc2)c2ccccc2)CC1", "result_ITMP": -5.87}, {"compound": "CCOC(=O)c1ccccc1OC(N)=O", "result_ITMP": -2.6}, {"compound": "Oc1cc(O)c2c(c1)O[C@H](c1ccc(O)c(O)c1)[C@@H](O)C2", "result_ITMP": -3.72}, {"compound": "CC(=O)Oc1ccccc1C(=O)Nc1ncc([N+](=O)[O-])s1", "result_ITMP": -2.98}, {"compound": "Oc1ccccc1", "result_ITMP": 2.3}, {"compound": "CCN(CC)CCOC(=O)C1(C2CCCCC2)CCCCC1", "result_ITMP": 7.59}, {"compound": "CCCc1cc(C)[nH]c(=O)c1CNC(=O)c1cc(-c2ccc(N3CCN(C(C)C)CC3)nc2)cc2c1cnn2C(C)C", "result_ITMP": 1.19}, {"compound": "CCOC(=O)c1ccccc1OC(=O)CCCCCCCC(=O)Oc1ccccc1C(=O)OCC", "result_ITMP": 0.16}, {"compound": "CC1(C)OC(=O)C(OCC2CC2)=C1c1ccc(S(C)(=O)=O)cc1", "result_ITMP": 3.73}, {"compound": "c1ccc(CC2=NCCN2)cc1", "result_ITMP": -4.29}, {"compound": "CC(C)(Oc1ccc(CCNC(=O)c2ccc(Cl)cc2)cc1)C(=O)O", "result_ITMP": -3.73}, {"compound": "OCCN1CCN(CCCN2c3ccccc3Sc3ccc(C(F)(F)F)cc32)CC1", "result_ITMP": 60.4}, {"compound": "N#Cc1c(N2C[C@@H]3NCCO[C@H]3C2)c(F)cc2c(=O)c(C(=O)O)cn(C3CC3)c12", "result_ITMP": -1.12}, {"compound": "Clc1ccc2c(c1)C(N1CCNCC1)=Nc1ccccc1O2", "result_ITMP": 70}, {"compound": "CCc1nn(CCO)c(CC)c1Oc1cc(C#N)cc(C#N)c1", "result_ITMP": 0.59}, {"compound": "O=C(O)CCCc1c[nH]c2ccccc12", "result_ITMP": -1.55}, {"compound": "O=C1c2ccccc2C(=O)C1c1ccccc1", "result_ITMP": -0.55}, {"compound": "O=C(Cn1ccnc1[N+](=O)[O-])NCc1ccccc1", "result_ITMP": 0.3}, {"compound": "Cc1cc(SCc2sc(-c3ccc(C(F)(F)F)c(F)c3)nc2C)ccc1OCC(=O)O", "result_ITMP": -1.52}, {"compound": "C#C[C@]1(O)CCC2C3CCC4=CC(=O)CC[C@@H]4C3CC[C@@]21CC", "note": "(stereo partly shown)", "result_ITMP": -1.88}, {"compound": "O=C(O)CCc1nc(-c2ccccc2)c(-c2ccccc2)o1", "result_ITMP": -0.9}, {"compound": "Cc1ncc([N+](=O)[O-])n1CC(O)CN1CCOCC1", "note": "(stereo not shown)", "result_ITMP": 0.25}, {"compound": "Cc1[nH]c2ccc(Cl)cc2c1C1=CCNCC1", "result_ITMP": 96.8}, {"compound": "O=C(O)CCc1c(C(=O)O)[nH]c2cc(Cl)cc(Cl)c12", "result_ITMP": -0.99}, {"compound": "CC(C(=O)O)c1ccc(CC2CCCC2=O)cc1", "note": "(stereo not shown)", "result_ITMP": 0.43}, {"compound": "CCCCCCCC/C=C\\CCCCCCCC(=O)OC(CO)CO", "result_ITMP": -2.87}, {"compound": "C=C1[C@@H](C)[C@H]2[C@H](Cc3ccccc3)NC(=O)[C@]23OC(=O)/C=C/[C@H](O)CCC[C@@H](C)C/C=C/[C@H]3[C@@H]1O", "result_ITMP": 28.3}, {"compound": "CC[C@H]1OC(=O)[C@H](C)[C@@H](O[C@H]2C[C@@](C)(OC)[C@@H](O)[C@H](C)O2)[C@H](C)[C@@H](O[C@@H]2O[C@H](C)C[C@H](N(C)C)[C@H]2O)[C@](C)(O)C[C@@H](C)C(=O)[C@H](C)[C@@H](O)[C@]1(C)O", "result_ITMP": -1.1}, {"compound": "Cc1cc2nc3c(=O)[nH]c(=O)nc-3n(C[C@@H](O)[C@@H](O)[C@@H](O)COP(=O)([O-])O)c2cc1C", "result_ITMP": 1.6}, {"compound": "CC(=O)c1ccc2c(c1)C(=O)C1(CC1)O2", "result_ITMP": 0.63}, {"compound": "COc1ccc(Cl)cc1C(=O)NCCc1ccc(C(=O)O)cc1", "result_ITMP": -4.02}, {"compound": "COc1cccc(-c2c(C)n(Cc3c(F)cccc3C(F)(F)F)c(=O)n(C[C@H](NCCCC(=O)O)c3ccccc3)c2=O)c1F", "result_ITMP": -5.96}, {"compound": "Cc1c(Cl)cccc1Nc1ccccc1C(=O)O", "result_ITMP": -2.87}, {"compound": "COc1cccc(/C=N/CC/N=C/c2cccc(OC)c2[O-])c1[O-].[Mn+3]", "result_ITMP": -5.92}, {"compound": "CC(C)C[C@@H](N)C(=O)N[C@H]1C(=O)N[C@@H](CC(N)=O)C(=O)N[C@H]2C(=O)N[C@H]3C(=O)N[C@H](C(=O)N[C@H](C(=O)O)c4cc(O)cc(O)c4-c4cc3ccc4O)[C@H](O)c3ccc(c(Cl)c3)Oc3cc2cc(c3O[C@@H]2O[C@H](CO)[C@@H](O)[C@H](O)[C@H]2O[C@H]2C[C@](C)(N)[C@H](O)[C@H](C)O2)Oc2ccc(cc2Cl)[C@H]1O", "result_ITMP": -9.92}, {"compound": "Cc1cc(S(=O)(=O)[O-])c2c(C)ccc(C(C)C)cc1-2", "result_ITMP": -3.22}, {"compound": "COc1cc(F)c(C(C)C)cc1-c1ccc(C(F)(F)F)cc1CN1C(=O)O[C@H](c2cc(C(F)(F)F)cc(C(F)(F)F)c2)[C@@H]1C", "result_ITMP": -5.76}, {"compound": "CO[C@H]1/C=C/O[C@@]2(C)Oc3c(C)c(O)c4c(O)c(c(/C=N/N5CCN(C)CC5)c(O)c4c3C2=O)NC(=O)/C(C)=C\\C=C\\[C@H](C)[C@H](O)[C@@H](C)[C@@H](O)[C@@H](C)[C@H](OC(C)=O)[C@@H]1C", "result_ITMP": -0.33}, {"compound": "CN(C)CCC1(c2ccc(Cl)cc2)Cc2ccccc2C(=O)O1", "note": "(racemic)", "result_ITMP": 27.5}, {"compound": "O=C(NCc1ccc(OC(F)(F)F)cc1)C1c2ccccc2C(=O)N1C1CCOCC1", "note": "(stereo not shown)", "result_ITMP": 3.14}, {"compound": "C[C@]12CC/C(=N\\OCCN)C[C@@H]1C(=O)C[C@@H]1[C@@H]2CC[C@]2(C)C(=O)CC[C@@H]12", "result_ITMP": -2.18}, {"compound": "CC(Oc1ccc(O)cc1)(P(=O)(O)O)P(=O)(O)O", "result_ITMP": 2.57}, {"compound": "C[C@H](N)C(=O)N[C@@H](CCC(N)=O)C(=O)O", "note": "(H-Ala-Gln-OH)", "result_ITMP": -8.62}, {"compound": "CC(C)Nc1cc(-c2c[nH]c(C(=O)N[C@H](CO)c3cccc(Cl)c3)c2)c(Cl)cn1", "result_ITMP": 0.57}, {"compound": "Cc1ccc(N(CC2=NCCN2)c2cccc(O)c2)cc1", "result_ITMP": -2.18}, {"compound": "C=Cc1c(C)c2cc3nc(c(CC(=O)O)c4[nH]c(cc5nc(cc1[nH]2)C(C)=C5CC)c(C)c4C(=O)O)C(CCC(=O)O)C3C", "note": "(stereo not shown)", "result_ITMP": -7.86}, {"compound": "CC(C)(C)c1ccc(/C=C/C(=O)Nc2ccc3c(c2)OCCO3)cc1", "result_ITMP": -2.62}, {"compound": "CCc1ccc(CCOc2ccc(CC3SC(=O)NC3=O)cc2)nc1", "note": "(stereo not shown)", "result_ITMP": 2.36}, {"compound": "O=C(CCCCCCC(=O)Nc1cccnc1)NO", "result_ITMP": -3.54}, {"compound": "O=C1N[C@H](C(=O)O)CS1", "result_ITMP": 4.13}, {"compound": "C[C@H](N[C@@H](CCc1ccccc1)C(=O)O)C(=O)N1CCC[C@H]1C(=O)O", "result_ITMP": 6.81}, {"compound": "NC(=O)N1CCC(CC(=O)N2CCC([C@H]3c4ncc(Br)cc4CCc4cc(Cl)cc(Br)c43)CC2)CC1", "result_ITMP": -1.91}, {"compound": "CCc1noc(C)c1-c1[nH]c2ccccc2c1C(O)CN(C)C", "note": "(stereo not shown)", "result_ITMP": -2.9}, {"compound": "O=C(Nc1cccnn1)N1CCC(=Cc2cccc(Oc3ccc(C(F)(F)F)cn3)c2)CC1", "result_ITMP": 1.25}, {"compound": "O=C(Nc1cc(C(F)(F)F)cc(C(F)(F)F)c1)c1cc(Cl)ccc1O", "result_ITMP": 0.83}, {"compound": "CCNC(=O)[C@@H]1CCCN1C(=O)[C@H](CCCNC(=N)N)NC(=O)[C@H](CC(C)C)NC(=O)[C@@H](C)NC(=O)[C@H](Cc1ccc(O)cc1)NC(=O)[C@H](CO)NC(=O)[C@H](Cc1c[nH]c2ccccc12)NC(=O)[C@H](Cc1cnc[nH]1)NC(=O)[C@@H]1CCC(=O)N1", "result_ITMP": -1.57}, {"compound": "CCCc1nc(C(C)(C)O)c(C(=O)OCc2oc(=O)oc2C)n1Cc1ccc(-c2ccccc2-c2nn[nH]n2)cc1", "result_ITMP": 11.1}, {"compound": "OC[C@@H](O)[C@@H](O)[C@@H](O)CO", "result_ITMP": -6.6}, {"compound": "C1Cc2[nH]nc(-c3nnn[nH]3)c2C1", "result_ITMP": -1.64}, {"compound": "Clc1ccc(C(OCCN2CCCCC2)c2ccccc2)cc1", "note": "(stereo not shown)", "result_ITMP": 63.9}, {"compound": "CCCCC1CCC(c2nc(-c3ccncc3)no2)CC1", "note": "(stereo not shown)", "result_ITMP": -10.2}, {"compound": "CCc1cc2cc(OC)c(OC)cc2c(Cc2ccccc2)n1", "result_ITMP": -5.58}, {"compound": "Cc1c(-c2ccc(-c3ccccc3F)cc2)nc2ccc(F)cc2c1C(=O)[O-]", "result_ITMP": 5.08}, {"compound": "CN1C/C=C/CCOc2cccc(c2)-c2ccnc(n2)Nc2cccc(c2)C1", "result_ITMP": -2.04}, {"compound": "CCCOCCn1c(=O)c(N2CCN(CCO)CC2)nc2cnc(-c3ccc(OC)nc3)cc21", "result_ITMP": 2.28}, {"compound": "O=C(O)CCN(O)C(=O)CCCCCCCCC1CC1", "result_ITMP": -4.53}]}]}
